The campaign covered roughly 310,000 compounds. About 2,200 (0.71%) showed an effect of 50% or more. The effect is printed as a negative number. The list shows a part of the results.
These molecules were tested against human ether-à-go-go-related gene (hERG) potassium channel (human, UniProt Q12809) (assay: primary screen, population patch clamp on CHO cells stably expressing hERG).
human ether-à-go-go-related gene (hERG) potassium channel, sequence (Q12809 whole entry, looked up): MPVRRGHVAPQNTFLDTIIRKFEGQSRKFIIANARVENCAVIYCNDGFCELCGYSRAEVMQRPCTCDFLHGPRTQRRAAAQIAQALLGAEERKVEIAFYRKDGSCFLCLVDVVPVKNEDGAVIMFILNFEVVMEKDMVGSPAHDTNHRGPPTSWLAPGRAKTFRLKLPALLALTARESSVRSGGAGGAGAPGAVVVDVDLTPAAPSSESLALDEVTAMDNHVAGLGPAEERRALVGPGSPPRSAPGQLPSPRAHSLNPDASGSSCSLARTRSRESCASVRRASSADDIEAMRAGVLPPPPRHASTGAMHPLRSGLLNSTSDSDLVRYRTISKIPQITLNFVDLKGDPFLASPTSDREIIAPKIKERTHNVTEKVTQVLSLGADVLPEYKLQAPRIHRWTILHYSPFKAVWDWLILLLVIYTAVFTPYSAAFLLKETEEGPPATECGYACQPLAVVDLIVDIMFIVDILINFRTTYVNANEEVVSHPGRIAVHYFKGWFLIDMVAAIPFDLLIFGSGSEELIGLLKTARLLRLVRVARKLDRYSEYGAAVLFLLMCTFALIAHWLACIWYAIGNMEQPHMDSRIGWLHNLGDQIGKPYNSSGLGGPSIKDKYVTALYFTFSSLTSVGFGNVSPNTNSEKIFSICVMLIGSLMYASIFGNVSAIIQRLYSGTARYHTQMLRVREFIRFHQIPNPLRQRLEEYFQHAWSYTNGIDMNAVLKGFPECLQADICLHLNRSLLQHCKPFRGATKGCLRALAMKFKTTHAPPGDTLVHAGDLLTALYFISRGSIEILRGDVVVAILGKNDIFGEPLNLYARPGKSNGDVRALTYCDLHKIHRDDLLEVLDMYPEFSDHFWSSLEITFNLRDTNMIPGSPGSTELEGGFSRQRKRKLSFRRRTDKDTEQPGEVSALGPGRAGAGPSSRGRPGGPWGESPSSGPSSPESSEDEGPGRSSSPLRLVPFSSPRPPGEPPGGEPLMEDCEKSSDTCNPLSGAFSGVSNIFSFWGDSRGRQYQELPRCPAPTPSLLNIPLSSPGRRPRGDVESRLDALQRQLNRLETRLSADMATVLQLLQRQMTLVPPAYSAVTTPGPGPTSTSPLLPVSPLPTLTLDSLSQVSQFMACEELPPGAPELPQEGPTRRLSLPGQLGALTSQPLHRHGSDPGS

SMILES	hERG current change (%, negative = inhibition) at 1uM [%]
Fc1ccc(-c2nc3c(-c4ccccc4)cnn3cc2CCN2CCOCC2)cc1	7.29
COc1ccc(CCNC(=O)CCc2ccccc2)cc1OC	9.65
Cc1ccc(CN2Cc3cccc4c3[C@@H](CC2=O)[C@H](O)[C@H](O)C4)cc1	13.3
COc1cccc(N2CCN(C(=O)c3oc4ccccc4c3NC(=O)CCc3cc(OC)no3)CC2)c1	14
COc1ccc(C(=O)/C=C/c2ccc(OC)c(O)c2)c(F)c1	-0.356
O=C(Nc1ccc(F)cc1)C1CCN(c2nnnn2-c2ccccc2)CC1	-11.5
COc1ccc(N2C(=O)CCC(C(=O)NCc3ccccn3)C2c2ccc(OC)c(OC)c2)cc1 (centres unmarked)	3.01
CCN(CC)CCNC(=O)C(C(=O)c1ccccc1)n1ccccc1=O (centres unmarked)	-1.74
O=C(Nc1ccc(Cl)c(S(=O)(=O)N2CCOCC2)c1)c1ccccn1	-0.523
CCN(CC)S(=O)(=O)c1ccc(-n2cnc3cc(C)c(C)cc32)nc1	14.1
O=C(NC1CCCCC1)C(c1cccs1)N(C(=O)C(F)(F)F)c1ccccc1 (centres unmarked)	1.09
COc1ccccc1C(O)P(=O)(OC(C)C)c1ccc(N(C)C)cc1 (centres unmarked)	-6.33
Cc1csc(NC(C)c2nc3cc(C(F)(F)F)ccc3n2CCOCCO)n1 (centres unmarked)	-13.9
COc1cc(NC(=O)[C@H]2CCCN2S(=O)(=O)c2cccc3cccnc23)cc(OC)c1OC	8.67
CNC(=O)CSc1nnc(NC(=O)C2CC(=O)N(c3ccccc3OC)C2)s1 (centres unmarked)	7.27
Cc1ccccc1N1CC(c2nc3ccccc3[nH]2)CC1=O (centres unmarked)	9.34
Cc1ccccc1NS(=O)(=O)c1cc(C(=O)N2CCc3ccccc3C2)ccc1C	22
COc1cc(C2C3C(=O)N(Cc4ccccc4)C(=O)C3ON2c2ccccc2)cc(OC)c1O (centres unmarked)	3.74
CCc1ccc2oc(-c3cccc(N)c3)nc2c1	5.75
CC(C(=O)c1ccc(Br)cc1)[n+]1cccc(NC(=O)c2ccccc2)c1 (centres unmarked)	1.86
CC(C)(C)c1ccc(CN2N=C(/C=C/c3ccccc3)CCC2=O)cc1	11.3
C#CCOc1ccc(/C=C2/C(=O)ON=C2C)cc1OCC	17

SMILES	hERG current change (%, negative = inhibition) at 1uM [%]
CCOc1ccc(C(=O)NCC(=O)OCC(=O)Nc2ccc(C)c(S(=O)(=O)N(C)C)c2)cc1	-6.52
CC(=O)C1=C(O)C(=O)N(c2ccc(Br)cn2)C1c1cccc([N+](=O)[O-])c1 (centres unmarked)	14.9
Cc1ccc(-c2nc3ccccc3s2)cc1NC(=O)c1cc(-n2cnnc2)ccc1Cl	-2.5
COc1ccc(NC(=O)NNC(=O)C(O)(c2ccccc2)c2ccccc2)cc1	3.47
C=CCN1C(=S)N[C@@H]2CS(=O)(=O)C[C@@H]21	9.05
CC(=O)c1ccc(S(=O)(=O)N2CCN(C(=O)C3CCCC3)CC2)cc1	6.86
CCOC(CNC(=O)c1ccc2c(c1)ncn2-c1ccc(F)c(F)c1)OCC	3.06
CC(C)=C1C2CCC1C1C(=O)N(NC(=O)COc3ccc(Cl)c(C)c3)C(=O)C21 (centres unmarked)	-0.967
O=C(COc1ccccc1Cl)N1CCN(c2ccc(F)cc2)CC1	-1.65
Cc1ccc(-n2c(-c3ccccc3)c[n+]3c2CCc2ccccc2-3)c(C)c1.[Br-]	-82.5
O=C(N/N=C/c1ccccn1)c1cccc(NC(=O)c2ccccc2Cl)c1	16.8
COc1ccc2c(c1)c(CC(=O)Nc1cccc(S(N)(=O)=O)c1)c(C)n2C(=O)c1ccc(Cl)cc1	4.6
CNC(=O)COc1ccccc1C(=O)Nc1ccc2c(c1)oc1ccccc12	13.7
CCn1c(-c2ccccc2SC)n[nH]c1=S	10.7
CN(C(=O)C1CCCO1)c1nnc(-c2ccccn2)s1 (centres unmarked)	8.44
CC(C)OC(=O)CSc1ncnc2c1cnn2-c1ccccc1	14.3
COc1ccccc1CC(=O)Nc1cccc(C(=O)Nc2nccs2)c1	10.9
Cc1ccc(NC(=O)/C(=C/C=C/c2ccccc2)NC(=O)c2ccccc2)cc1	1.32
CCNC(=O)NC(=O)C(C)N1C(=O)NC(c2ccccc2)(c2ccccc2)C1=O (centres unmarked)	-2.55
CSc1ncccc1C(=O)OCc1ccc([N+](=O)[O-])cc1	13.2
COc1ccc(NC(=O)c2ccc(-c3ccc([N+](=O)[O-])cc3)o2)cc1OC	-12.3
O=C(c1ccncc1)N1CCN(S(=O)(=O)c2ccc3ccccc3c2)CC1	6.93

SMILES	hERG current change (%, negative = inhibition) at 1uM [%]
O=C(Nc1ccc(Cl)c(S(=O)(=O)N2CCOCC2)c1)c1ccccc1-c1ccc(C(F)(F)F)cc1	10.3
Cc1ccc(C(=O)N/N=C\c2ccccn2)cn1	11.8
Cc1ccc(F)c(NC(=O)/C(C#N)=C(\O)c2ccc(C(C)(C)C)cc2)c1	15
O=C(O)CCNS(=O)(=O)c1ccc2c(c1)Cc1ccccc1-2	10.9
CC(=O)c1cc2c(cc1NC(=O)CCCC(=O)O)OCO2	10.1
COc1cc(-c2nnc(SCC(=O)NC3CCCC3)n2C)cc(OC)c1O	32.3
CC(C)NS(=O)(=O)c1ccc(CCC(=O)Nc2ccc3c(c2)OCCO3)cc1	4.12
CCCCCOc1ccc(C2C(C(C)=O)=C(C)Nc3ncnn32)cc1OC (centres unmarked)	-13.3
CCc1nc2sc3c(c2c(=O)n1CCO)CCC3	15.2
CCC(CC)NC(=O)Nc1cccc(C)c1C	-0.365
CCN1CCN(C(=O)c2cc(COc3c(C)cccc3C)on2)CC1	1.62
CC(=O)c1cccc(NC(=O)N2CCCC2C(=O)NCc2ccc(C)cc2)c1 (centres unmarked)	-9.66
COc1ccc(CSc2nncn2N)cc1Br	1.24
O=C(N/N=C/c1ccccc1OCC(=O)N1CCCC1)C(=O)Nc1ccccc1F	0.739
CN(C)S(=O)(=O)c1ccc(C(=O)Nc2nnc(SCC(=O)NCC3CCCO3)s2)cc1 (centres unmarked)	9.33
O=C(Nc1cccnc1)Nc1ccc(Br)cc1Cl	6.6
O=C(Cc1ccc(F)cc1)NC1CCSC1=O (centres unmarked)	13.6
CCn1c(SCC(=O)Nc2ccccc2OC)nc2ccccc2c1=O	1.38
CN(C)P1(N(C)C)=NC(C(F)(F)F)=NC(C(F)(F)F)=N1	17.7
CNS(=O)(=O)c1cc(-c2nnc(N3CCOCC3)c3ccccc23)ccc1C	-0.938
Cc1nn(CC(=O)Nc2ccc3c(c2)nc(CN2CCCCC2)n3C)c(=O)c2ccccc12	11.1
N/C(=N\OC(=O)/C=C/c1ccccc1Cl)c1ccncc1	-1.32

SMILES	hERG current change (%, negative = inhibition) at 1uM [%]
CCn1c(C(=O)O)c(CC(=O)NC2CCCCCC2)c2ccccc21	9.57
CSCc1c(C(=O)N2CCCc3ccccc32)oc2ccccc12	4.47
O=C(COc1ccc2c(c1)OCO2)Nc1nccs1	17
Cc1c(NC(=O)C(C)OC(=O)c2cccnc2)c(=O)n(-c2ccccc2)n1C (centres unmarked)	12.3
Cc1cc(C)c(C)c(OCC(=O)N2CCN(c3ccccn3)CC2)c1	2.13
CN(C)c1ncc(S(=O)(=O)c2ccccc2)c(-c2ccccc2Cl)n1	3.26
CCn1nc(C)cc1-c1n[nH]c(=S)n1N	17.4
COC(=O)c1sc2nc3c(c(-c4cccs4)c2c1N)CCCC3	6.19
COc1ccc(C(=O)CSc2nnc(Cn3nnc4ccccc43)n2C)cc1	-2.19
C/C=C\C=C/C(=O)Nc1cccc(C2=NOC3(C2)C[C@@H](C(N)=O)N(C(=O)/C=C/C=C\C)C3)c1 (some centres unmarked)	20.7
Cc1ccc(-n2c(CCC(=O)O)ccc2-c2cccs2)cc1C	8.73
CCOCCCNC(=O)C1CCN(S(=O)(=O)c2cc(Br)cc3c2N(C(=O)CC)CC3)CC1	3.7
O=C1CCC(C(=O)N2CCCCCC2)CN1Cc1cccc(C(F)(F)F)c1 (centres unmarked)	-8.4
COc1ccc(NC(=O)Cn2c(=O)n(Cc3ccco3)c(=O)c3ccccc32)cc1	15.7
CCn1cc(CN2CCC(n3nccc3NC(=O)CCCc3ccccc3)CC2)cn1	-6.13
O=c1nc2s/c(=C\c3ccco3)c(=O)n2nc1Cc1ccccc1	15.3
CCn1c(C)nc2cc(-c3nc4n(n3)Cc3ccccc3-4)ccc21	8.12
COc1cc(NC(=O)Cc2ccc(F)cc2)cc(OC)c1OC	3.28
CCS(=O)(=O)N1CCC(C(=O)Nc2cc([N+](=O)[O-])ccc2C)CC1	10.8
CC(C)c1ccc(NC(=O)[C@H]2CSCN2C(=O)[C@@H]2CCC(=O)N2)cc1	26.3
